The source of these data is patent publication US20230086069A1 (SYSTIMMUNE, published 2023).

Experiment [1] addresses T1, human CD19 on cells (CD20+ B cells of human PBMC; Raji lymphoma cells) (human, UniProt P15391 20-556).
T1 sequence (looked up): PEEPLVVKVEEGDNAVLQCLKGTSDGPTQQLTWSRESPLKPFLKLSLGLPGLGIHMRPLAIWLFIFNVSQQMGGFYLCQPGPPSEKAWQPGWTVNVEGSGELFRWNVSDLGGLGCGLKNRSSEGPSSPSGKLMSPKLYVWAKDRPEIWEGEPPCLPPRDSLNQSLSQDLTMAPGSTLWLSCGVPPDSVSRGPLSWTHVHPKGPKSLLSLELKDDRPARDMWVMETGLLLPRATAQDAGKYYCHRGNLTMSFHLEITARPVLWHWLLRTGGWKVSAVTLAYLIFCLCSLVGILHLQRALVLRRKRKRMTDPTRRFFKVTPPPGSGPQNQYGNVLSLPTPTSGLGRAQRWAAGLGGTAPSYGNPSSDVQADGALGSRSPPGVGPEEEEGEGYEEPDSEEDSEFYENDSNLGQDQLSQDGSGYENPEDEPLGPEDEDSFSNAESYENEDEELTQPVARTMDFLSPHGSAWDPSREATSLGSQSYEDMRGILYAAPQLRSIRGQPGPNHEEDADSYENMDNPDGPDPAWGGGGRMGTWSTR
As to the kind of experiment: cell-based or functional assay.

The target of a further experiment is T2, His-tagged human CD19 (human, UniProt P15391 20-291, limits assumed).
T2 construct: not shown: His tag
T2 sequence (looked up): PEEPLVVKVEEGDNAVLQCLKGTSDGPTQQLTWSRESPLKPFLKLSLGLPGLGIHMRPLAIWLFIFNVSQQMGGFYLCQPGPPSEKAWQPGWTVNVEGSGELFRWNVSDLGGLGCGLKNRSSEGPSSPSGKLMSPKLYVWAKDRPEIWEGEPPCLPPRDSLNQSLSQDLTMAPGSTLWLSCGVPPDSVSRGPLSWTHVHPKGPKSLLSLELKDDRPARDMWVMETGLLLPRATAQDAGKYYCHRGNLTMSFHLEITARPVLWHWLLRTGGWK
Nature of the experiment: BLI (Octet), GNC antibody on AHC sensor, His-tagged human CD19 as analyte, 1:1 fit. How it is done: To determine the binding affinity of the hexa and pentaGNC antibodies to human CD19, the Octet binding assay was used. The GNC antibodies were loaded via AHC sensors at 10 ug/ml and bound to a serial dilution (1:2.5 dilutions starting from the highest concentration of 200 nM) or a single 100-nM concentration of His-tagged human CD19.

B1: SI-55H11 (hexaGNC antibody, humanized CD19 binding domain H4 at D6) (other)
heavy: EIVLTQSPSTLSVSPGERATFSCRASQSIGTNIHWYQQKPGKPPRLLIKYASESISGIPDRFSGSGSGTEFTLTISSVQSEDFAVYYCQQNNNWPTTFGPGTKLTVLGGGGSGGGGSGGGGSGGGGSQVQLQQSGPGLVKPSETLSITCTVSGFSLTNYGVHWIRQAPGKGLEWLGVIWSGGNTDYNTPFTSRFTITKDNSKNQVYFKLRSVRADDTAIYYCARALTYYDYEFAYWGQGTLVTVSSGGGGSGGGGSGGGGSGGGGSEVQLVESGGGLVQPGGSLRLSCAASGFTISTNAMSWVRQAPGKCLEWIGVITGRDITYYASWAKGRFTISRDNSKNTLYLQMNSLRAEDTAVYYCARDGGSSAITSNNIWGQGTLVTVSSASTKGPSVFPLAPSSKSTSGGTAALGCLVKDYFPEPVTVSWNSGALTSGVHTFPAVLQSSGLYSLSSVVTVPSSSLGTQTYICNVNHKPSNTKVDKRV[omitted - human IgG1 Fc with changes]GGGGSGGGGSEVQLLESGGGLVQPGGSLRLSCAASGFSFSSGYDMCWVRQAPGKGLEWIACIAAGSAGITYDANWAKGRFTISRDNSKNTLYLQMNSLRAEDTAVYYCARSAFSFDYAMDLWGQGTLVTVSSGGGGSGGGGSGGGGSGGGGSDIQMTQSPSTLSASVGDRVTITCQASQSISSHLNWYQQKPGKAPKLLIYKASTLASGVPSRFSGSGSGTEFTLTISSLQPDDFATYYCQQGYSWGNVDNVFGGGTKVEIKGGGGSGGGGSGRSLVESGGGLVQPGGSLRLSCTASGFTISSYHMQWVRQAPGKGLEYIGTISSGGNVYYASSARGRFTISRPSSKNTVDLQMNSLRAEDTAVYYCARDSGYSDPMWGQGTLVTVSSGGGGSGGGGSGGGGSGGGGSDVVMTQSPSSVSASVGDRVTITCQASQNIRTYLSWYQQKPGKAPKLLIYAAANLASGVPSRFSGSGSGTDFTLTISDLEPGDAATYYCQSTYLGTDYVGGAFGGGTKVEIK
light: ENVLTQSPASLSASPGERVTITCSASSSVSYMHWYQQKPGQAPKLWIYDTSKLASGVPSRFSGSGSGNDHTLTISSMEPEDFATYYCFQGSVYPFTFGQGTKVTVLGGGGSGGGGSGGGGSGGGGSQVTLKESGPGLVQPGQTLSLTCAFSGFSLSTSGMGVGWIRQPPGKGLEWLAHIWWDDDKRYNPALKSRLTISKDTSKNQVYLQMNSLDAEDTAVYYCARMELWSYYFDYWGQGTLVTVSSGGGGSGGGGSDVVMTQSPSTLSASVGDRVTINCQASESISSWLAWYQQKPGKAPKLLIYEASKLASGVPSRFSGSGSGTEFTLTISSLQPDDFATYYCQGYFYFISRTYVNSFGCGTKVEIKRTVAAPSVFIFPPSDEQLKSGTASVVCLLNNFYPREAKVQWKVDNALQSGNSQESVTEQDSKDSTYSLSSTLTLSKADYEKHKVYACEVTHQGLSSPVTKSFNRGECGGGGSGGGGSGGGGSQSALTQPASVSGSPGQSITISCTGTSSDVGGYNFVSWYQQHPGKAPKLMIYDVSDRPSGVSDRFSGSKSGNTASLIISGLQADDEADYYCSSYGSSSTHVIFGGGTKVTVLGGGGSGGGGSGGGGSGGGGSQVQLQESGGGLVKPGGSLSLSCAASGFTFSSYWMSWVRQAPGKGLEWVANINRDGSASYYVDSVKGRFTISRDDAKNSLYLQMNSLRAEDTAVYYCARDRGVGYFDLWGRGTLVTVSS
What is called Kd is the constant that tells how readily two partners part at equilibrium. Read a low Kd as a tighter complex. On to B1, for which, in experiment [1], the “EC50 (pM), re-directed T cell cytotoxicity: cytolysis of Raji cells by human CD8 T cells” value turned out to be 2.5 pM. Also, the Kd in the experiment with His-tagged human CD19 was 4.54 nM.
